# Assay results from paper PMC4336329 (PLoS ONE, 2015).
# Among all 310,000 compounds or so, about 2,200 (0.71%) showed an effect of 50% or more. Effects have a minus sign here. The list shows a part of the results.
# Molecular target: human ether-à-go-go-related gene (hERG) potassium channel (human, UniProt Q12809)
# Experiment: primary screen, population patch clamp on CHO cells stably expressing hERG
# Chain of human ether-à-go-go-related gene (hERG) potassium channel (Q12809 whole entry, looked up): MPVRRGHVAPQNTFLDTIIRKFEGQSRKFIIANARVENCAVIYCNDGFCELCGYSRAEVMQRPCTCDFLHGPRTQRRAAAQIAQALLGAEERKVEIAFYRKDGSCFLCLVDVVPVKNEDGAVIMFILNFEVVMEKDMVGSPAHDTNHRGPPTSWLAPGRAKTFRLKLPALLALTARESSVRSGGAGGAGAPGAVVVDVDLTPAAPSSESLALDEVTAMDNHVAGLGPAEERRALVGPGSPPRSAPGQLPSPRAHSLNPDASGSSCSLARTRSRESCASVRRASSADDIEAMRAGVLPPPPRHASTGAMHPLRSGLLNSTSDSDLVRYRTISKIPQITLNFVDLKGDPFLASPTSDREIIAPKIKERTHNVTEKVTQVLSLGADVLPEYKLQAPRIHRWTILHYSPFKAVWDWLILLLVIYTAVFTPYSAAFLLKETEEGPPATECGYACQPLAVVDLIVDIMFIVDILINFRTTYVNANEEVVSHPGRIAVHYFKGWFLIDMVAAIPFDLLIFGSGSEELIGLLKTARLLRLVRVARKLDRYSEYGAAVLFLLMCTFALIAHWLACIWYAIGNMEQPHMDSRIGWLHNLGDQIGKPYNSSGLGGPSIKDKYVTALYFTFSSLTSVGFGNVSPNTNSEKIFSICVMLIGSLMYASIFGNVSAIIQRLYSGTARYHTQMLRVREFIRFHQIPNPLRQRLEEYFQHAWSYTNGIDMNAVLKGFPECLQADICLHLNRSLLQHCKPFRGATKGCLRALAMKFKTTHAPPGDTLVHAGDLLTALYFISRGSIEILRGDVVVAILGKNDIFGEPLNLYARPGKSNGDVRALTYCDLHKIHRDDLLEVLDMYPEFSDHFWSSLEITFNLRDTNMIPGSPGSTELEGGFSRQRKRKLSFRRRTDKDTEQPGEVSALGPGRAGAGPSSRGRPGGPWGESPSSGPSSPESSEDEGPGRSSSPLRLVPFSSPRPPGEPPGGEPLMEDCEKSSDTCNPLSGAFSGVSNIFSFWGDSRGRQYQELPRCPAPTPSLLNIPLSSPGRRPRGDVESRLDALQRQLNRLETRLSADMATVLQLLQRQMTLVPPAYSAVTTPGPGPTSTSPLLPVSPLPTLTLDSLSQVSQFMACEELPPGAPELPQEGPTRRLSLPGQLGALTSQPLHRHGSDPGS
row,Compound,"hERG current change (%, negative = inhibition) at 1uM [%]"
1,COc1ccccc1CN1CC(C(=O)NCCN(C)CCc2ccccc2)CCC1=O (centres unmarked),-32.1
2,COC(=O)c1[nH]c2ccc(Cl)cc2c1NC(=O)CN1CCc2cc(OC)c(OC)cc2C1,12.9
3,CCC1=NN(C(=O)c2ccc([N+](=O)[O-])cc2)C(O)(c2ccccc2)C1 (centres unmarked),6.13
4,COc1ccc(N=Nc2cc(C)ccc2O)cc1,11.1
5,CCSc1nnc(CNC(=O)C23CC4CC(CC(C4)C2)C3)n1C1CCCCC1,14.2
6,O=C(CSc1ccc([N+](=O)[O-])cn1)Nc1ccc(N2CCOCC2)cc1,6.63
7,Cc1ccsc1C1CC(=O)NC2=C1C(=O)CC(C)(C)C2 (centres unmarked),14.4
8,Cc1cc(-c2nnc(SCC(=O)Nc3nc(-c4ccc(Cl)cc4)cs3)o2)no1,14.9
9,CC1CC(=O)NN=C1c1ccc(N(C)C)c([N+](=O)[O-])c1 (centres unmarked),0.945
10,O=C(NCc1ccccc1)C(c1ccncc1)N(C(=O)c1csnn1)c1cccc(F)c1 (centres unmarked),8.92
11,COc1ccc(C(=O)NCCN2CCN(C(=O)c3ccc(OC)c(OC)c3)CC2)cc1OC,13.2
12,CN(C)c1ccc(C(=O)c2ccc(N(C)C)c(N)c2)cc1N,-1.18
13,CCn1cc(CN2CCN(CC(C)(C)C)C(CCO)C2)c2ccccc21 (centres unmarked),11.3
14,Cc1ccc(C(=O)/C=C/Nc2ccccc2C(N)=O)o1,0.319
15,CCSC1=NSC2=NC(=O)/C(=C\c3coc4ccccc4c3=O)C(=N)N12,4.51
16,Cc1ccc(C(=O)Nc2cccc(N(C)S(C)(=O)=O)c2)cc1S(=O)(=O)Nc1ccccc1,0.389
17,O=C(C1CCN(S(=O)(=O)c2ccc(Br)cc2)CC1)N1CCOCC1,-1.91
18,COc1cccc(NC(=O)[C@@H]2CCCN2C(=O)C2CCN(S(=O)(=O)c3ccc(C)cc3)CC2)c1,1.83
19,O=C(CCNS(=O)(=O)c1ccc2[nH]c(=O)oc2c1)Nc1ccccc1,10.5

row,Compound,"hERG current change (%, negative = inhibition) at 1uM [%]"
1,CC1CCCCN1S(=O)(=O)c1ccc(C(=O)Nc2ccccc2-c2nc3ccccc3s2)cc1 (centres unmarked),12.1
2,Cc1ncc(CO)c(/C=N/NC(=S)Nc2ccc(F)cc2)c1O,18.4
3,O=C1Nc2ccccc2N(O)N1c1ccc(S(=O)(=O)N2CCCCCC2)cc1,7.53
4,O=C(c1ccc2ccccc2c1)N1CCc2ccccc21,12.4
5,CC(C)(C)n1nnnc1C(c1cccnc1)N1CCN(c2cccc(C(F)(F)F)c2)CC1.Cl (centres unmarked),2.7
6,Cc1ccccc1C(=O)NCC(=O)O,9.67
7,Cc1ccc2c(c1)CCCN2C(=O)CCc1nc2ccccc2c(=O)[nH]1,3.44
8,COc1ccc(NC(=O)N2CCCc3cc(C)ccc32)c(OC)c1,14.5
9,C/C(=N\NC(=O)c1c[nH]c2ccccc12)c1ccc2c(c1)OCO2,8.18
10,Cc1ccc(CNC(=O)COc2ccc(C)nc2[N+](=O)[O-])cc1,-3.03
11,COc1ccccc1N1CCN(CC(=O)Nc2ccccc2C(=O)NCCc2ccccc2)CC1,37.6
12,C=CCN(C(=O)Nc1ccc(OC)cc1)c1nnc(-c2ccncc2)s1,-2.3
13,O=C(OCc1ccccc1)c1ccc(Br)o1,0.851
14,Cc1ccc(S(=O)(=O)N2CCC(=O)N(CCOCc3ccc(Cl)cc3)CC2)cc1,2.76
15,O=C(O)c1cc(NCc2ccccc2)ccc1N1CCOCC1,2.9
16,COc1ccc2c(c1)C(NC(C)=O)C(=O)N2CCc1ccccc1 (centres unmarked),3.02
17,Cc1ccc(-c2nnc(SCC(=O)Nc3cccc(C(=O)N4CCOCC4)c3)n2C)cc1,-2.71
18,Cc1sc2nc[nH]c(=O)c2c1-c1ccc(Cl)cc1,13.8
19,CCCC(c1nnnn1Cc1ccco1)N1CCC(C(N)=O)CC1.Cl (centres unmarked),-4.52

row,Compound,"hERG current change (%, negative = inhibition) at 1uM [%]"
1,COC(=O)c1c(C)oc(C)c1S(=O)(=O)N1CCCCC1,8.55
2,Cn1cccc1CNC(=S)Nc1cc(F)cc(F)c1,14.4
3,O=C(CN(C(=O)Cn1nnc(-c2cccs2)n1)c1ccc2c(c1)OCCO2)NCC1CCCO1 (centres unmarked),-3.21
4,CC1(c2ccc3c(c2)OCCO3)NC(=O)N(CC(=O)c2ccc[nH]2)C1=O (centres unmarked),7.08
5,O=C(/C=C/c1ccc(Br)cc1)N1CCN(Cc2ccccc2)CC1,11
6,CC#CCCC(=O)N1C=Cc2ccccc2C1C#N (centres unmarked),0.723
7,COc1ccc(C(=O)N2CCC(=O)N(C(CO)Cc3ccccc3)CC2)cc1 (centres unmarked),1.01
8,COc1cccc(CN(C)C(=O)C23CC4CC(CC(NC(C)=O)(C4)C2)C3)c1OC,1.91
9,Nc1nn(-c2ccccc2)c(N)c1N=Nc1cccc(F)c1,18.7
10,O=C(NC(=S)Nc1cc([N+](=O)[O-])ccc1O)C1CC1,4.72
11,CCN1C(=O)c2cccc3c(S(=O)(=O)Nc4ccc(OC)cc4OC)ccc1c23,1.86
12,CCCOC(=O)c1c(NC(=O)/C=C/c2cnn(C)c2C)sc(C(=O)OC)c1C,12.5
13,CCCOc1ccc(-c2c(C(=O)N/N=C/c3ccsc3)nnn2-c2nonc2N)cc1,14.1
14,Cc1cccc2nc(-c3cccnc3)c(Nc3ccccc3)n12,1.54
15,CCOc1ccccc1NC(=O)c1ccc(NC(=O)c2ccco2)cc1,-5.44
16,COC(=O)c1sccc1NC(=O)c1ccc(C(C)C)cc1,15.8
17,Cc1csc(SCC(=O)Nc2ccc3c(c2)OCCO3)n1,16
18,O=c1[nH]c(Cc2ccc(Cl)cc2)nc2ccccc12,13.9
